About 220 (0.56%) of roughly 39,000 compounds showed activity. The list shows a part of the results.
system: Escherichia coli K-12 BW25113; assay: relative growth (OD600 normalised to plate interquartile mean) (fraction); higher = less growth inhibition, active = 0.2 or less; details: 50 µM; LB; incubation time: overnight (16-24 h)
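Also: static incubation at 37 °C against the wild-type strain, values averaged over two biological replicates.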

| SMILES | relative growth |
| --- | --- |
| CC(C)NC(=O)Nc1ccc2c(c1)CC(=O)N([C@H](C)CO)C[C@@H](C)[C@H](CN(C)S(=O)(=O)c1ccc(Cl)cc1)O2 | inactive: 1.01 |
| C[C@@H]1CCCCO[C@@H](CN(C)C(=O)c2ccccc2)[C@H](C)CN([C@@H](C)CO)C(=O)c2cc(NC(=O)Nc3cccc4ccccc34)ccc2O1 | inactive: 1.01 |
| O=C(/C=C/c1ccc2c(c1)O[C@@H](C(=O)O)[C@@H](c1ccc(O)c(O)c1)O2)O[C@H](Cc1ccc(O)c(O)c1)C(=O)O | inactive: 0.978 |
| C[C@@H]1CCCCO[C@@H](CN(C)Cc2ccc(Cl)c(Cl)c2)[C@@H](C)CN([C@H](C)CO)C(=O)c2cc(NC(=O)C3CCCCC3)ccc2O1 | inactive: 0.987 |
| C[C@@H]1CCCCO[C@@H](CN(C)S(=O)(=O)c2ccc(F)cc2)[C@@H](C)CN([C@H](C)CO)C(=O)c2cc(NC(=O)NC3CCCCC3)ccc2O1 | inactive: 1 |
| Cn1cc(CO)cn1 | inactive: 1.01 |
| C[C@H]1CCCCO[C@@H](CN(C)S(=O)(=O)c2ccc(Cl)cc2)[C@@H](C)CN([C@@H](C)CO)C(=O)c2cc(NS(=O)(=O)c3ccc(F)cc3)ccc2O1 | inactive: 1.02 |
| CC(C)CC#Cc1ccc2c(c1)O[C@@H](CN(C)C(=O)c1cccnc1)[C@@H](C)CN([C@H](C)CO)S2(=O)=O | inactive: 0.971 |
| COc1ccc(NC(=O)N(C)C[C@@H]2OCCCC[C@H](C)Oc3ccc(NC(=O)CCC(F)(F)F)cc3C(=O)N([C@H](C)CO)C[C@@H]2C)cc1 | inactive: 1 |
| Cc1noc(C)c1S(=O)(=O)N(C)C[C@H]1Oc2ccc(NC(=O)Nc3ccc4c(c3)OCO4)cc2CC(=O)N([C@H](C)CO)C[C@@H]1C | inactive: 1.01 |
| Fc1cc2ccncc2cc1Cl | inactive: 0.966 |
| CCC(C)C(N)C(=O)O (centres undefined) | inactive: 0.923 |
| C[C@H]1CN([C@@H](C)CO)C(=O)c2cc(NC(=O)Cc3cn(C)c4ccccc34)ccc2O[C@H]1CN(C)CC1CCCCC1 | inactive: 0.988 |
| CN(C)CCCNC(=O)C[C@@H]1CC[C@@H](NS(=O)(=O)c2ccccc2)[C@H](CO)O1 | inactive: 0.999 |
| C[C@@H]1CCCCO[C@H](CN(C)Cc2ccc(Cl)c(Cl)c2)[C@@H](C)CN([C@@H](C)CO)C(=O)c2cc(NC(=O)CCC(F)(F)F)ccc2O1 | inactive: 0.914 |
| Cc1ccc(S(=O)(=O)N(C)C[C@@H]2Oc3c(NC(=O)c4ccncc4)cccc3C(=O)N([C@@H](C)CO)C[C@@H]2C)cc1 | inactive: 1 |
| CC(C)CC#Cc1ccc2c(c1)O[C@@H](CN(C)C(=O)c1cnccn1)[C@@H](C)CN([C@H](C)CO)S2(=O)=O | inactive: 0.965 |
| C[C@@H]1CN([C@H](C)CO)C(=O)Cc2cc(NC(=O)c3ccncc3)ccc2O[C@@H]1CN(C)S(=O)(=O)c1ccc(F)cc1 | inactive: 0.999 |
| COc1ccc([C@@H]([C@H](Cc2ccccc2)OC(C)=O)N2C[C@@H]3C(=NO[C@H]3[C@@H](OC(C)=O)c3ccccc3)[C@@H]2Cc2ccccc2)cc1 | inactive: 1.02 |
| CNC(=O)c1cccc(NC(=S)NC)c1 | inactive: 1 |

| SMILES | relative growth |
| --- | --- |
| C[C@@H]1CCCCO[C@@H](CN(C)Cc2ccccc2)[C@@H](C)CN([C@@H](C)CO)C(=O)c2cc(NC(=O)C3CCCCC3)ccc2O1 | inactive: 1.01 |
| Cc1ccc(S(=O)(=O)N(C)C[C@H]2OCCCC[C@H](C)Oc3ccc(NC(=O)Nc4ccc(F)cc4)cc3C(=O)N([C@H](C)CO)C[C@H]2C)cc1 | inactive: 1.01 |
| C[C@@H]1CN([C@H](C)CO)C(=O)CCCn2cc(nn2)CO[C@@H]1CN(C)C(=O)Nc1cccc2ccccc12 | inactive: 1.01 |
| NCC[C@H]1CC[C@@H](NC(=O)NC2CCCCC2)[C@H](CO)O1 | inactive: 0.983 |
| COc1ccc(S(=O)(=O)Nc2cccc3c2O[C@H](CN(C)Cc2ccc(Oc4ccccc4)cc2)[C@@H](C)CN([C@H](C)CO)C3=O)cc1 | inactive: 1.04 |
| Cc1noc(C)c1NC(=O)N(C)C[C@H]1OCCCC[C@H](C)Oc2ccc(NC(=O)C3CCCCC3)cc2C(=O)N([C@H](C)CO)C[C@H]1C | inactive: 1 |
| CCCN(C)C[C@@H]1OCCCC[C@@H](C)Oc2ccc(NC(=O)Nc3ccc(OC)cc3)cc2C(=O)N([C@H](C)CO)C[C@@H]1C | inactive: 0.992 |
| CCS(=O)(=O)N1CCc2ccc(N)cc2C1 | inactive: 0.973 |
| C[C@@H]1CN([C@H](C)CO)C(=O)c2cc(NS(=O)(=O)c3ccc(Cl)cc3)ccc2O[C@@H](C)CCCCO[C@@H]1CN(C)S(=O)(=O)c1cccs1 | inactive: 1.04 |
| C[C@@H]1CN([C@@H](C)CO)C(=O)c2cc(NC(=O)Nc3ccc(C(F)(F)F)cc3)ccc2O[C@@H]1CN(C)Cc1ccncc1 | inactive: 0.981 |
| COc1ccc(NC(=O)Nc2ccc3c(c2)C(=O)N([C@@H](C)CO)C[C@@H](C)[C@@H](CN(C)S(=O)(=O)c2cccs2)OCCCC[C@H](C)O3)cc1 | inactive: 1.02 |
| NC(=O)NC1NC(=O)NC1=O (centres undefined) | inactive: 0.986 |
| C[C@@H]1CCCCO[C@H](CN(C)Cc2ccc(C(F)(F)F)cc2)[C@H](C)CN([C@@H](C)CO)C(=O)c2cc(NS(C)(=O)=O)ccc2O1 | inactive: 0.987 |
| O=C1c2ccccc2[C@](Cc2ccccc2I)(C(=O)NCC(F)(F)F)[C@H](c2ccc(CO)cc2)N1C1CCCCC1 | inactive: 1.02 |
| Cc1cc2n(n1)CCN(C(=O)[C@H]1CC[C@@H](N)C1)C2 | inactive: 0.935 |
| C[C@H](CO)N1C[C@H](C)[C@H](CN(C)S(=O)(=O)c2ccc(F)cc2)Oc2c(NS(C)(=O)=O)cccc2C1=O | inactive: 0.989 |
| COc1cccc(S(=O)(=O)N(C)C[C@@H]2Oc3cc(C#CCC(C)C)ccc3S(=O)(=O)N([C@H](C)CO)C[C@H]2C)c1 | inactive: 1.01 |
| Cc1ccc(S(=O)(=O)N(C)C[C@H]2Oc3ccc(NC(=O)CCN4CCOCC4)cc3C(=O)N([C@H](C)CO)C[C@H]2C)cc1 | inactive: 1.04 |
| C[C@@H]1CCCCO[C@@H](CN(C)C(=O)NC2CCCCC2)[C@@H](C)CN([C@@H](C)CO)C(=O)c2cc(NS(=O)(=O)c3ccc(Cl)cc3)ccc2O1 | inactive: 0.884 |

From the supplement of paper PMC9446081
